The other results are listed elsewhere or left out.
Each sequence was assayed on PfAP2-HC AP2 domain (GST-tagged) (assay: gcPBM binding intensity (ln(normalized median fluorescence intensity)); higher = stronger DNA binding).
Outline: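 The binding buffer was 1× PBS containing 1% milk, 0.2 mg/ml BSA, 0.5% salmon testes DNA and 0.03% Triton X-100. In it, GST-tagged P. falciparum DNA-binding domains expressed in E. coli were applied for 1 h to an Agilent 4 × 180k array of primer-extended double-stranded 36-bp intergenic genomic probes plus negative controls. Binding intensity, read with Alexa488 anti-GST antibody and a 488 nm scan, is the highest Masliner-normalised natural-log median intensity across replicate spots of either probe orientation.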
In the case of “TATATATATTTAAGGTGTACATAAATAACAAAATAT [XGTACX_site2641]”, the “gcPBM binding intensity (ln)” value is reported as 9.74. “AAGTGTATACAGAAGAGTACAAACAATTTTTTTCTT [XGTACX_site7387]” was tested, and the “gcPBM binding intensity (ln)” value was 9.79. With “AAAAAACACAGACACACACACATATACATACATACA [CACACA_site2666]” the “gcPBM binding intensity (ln)” value was 10.7. In the case of “ATATTTCGTCTAAAAAGTACACAACAATAAAAAGTA [XGTACX_site6668]”, the “gcPBM binding intensity (ln)” value is reported as 9.63. “TTTTTTAAATAATATTGTACAAAAAATGTATAAATA [XGTACX_site3010]” was tested, and the “gcPBM binding intensity (ln)” value was 9.42. “TTAGGTTTATACACTACACACATTATTCATAAAAAA [CACACA_site871]” was tested, and the “gcPBM binding intensity (ln)” value was 9.83. In the case of “TACAAGCCCAATTCAAGTACATATATATATATATAT [XGTACX_site5569]”, the “gcPBM binding intensity (ln)” value is reported as 9.54. For “AGTTTGTCAATCAACACACACCTATTTATTATATAT [CACACA_site6030]”, the “gcPBM binding intensity (ln)” value was 9.93. For “TATTTATGTATATGCTGTACGCATTTGTGAAACATA [XGTACX_site4688]”, the “gcPBM binding intensity (ln)” value was 9.58. “AACCAATTAGAAGGATCCAGAACTTATTTGTTTTTA [CACACA_negctrl_site1744]” was tested, and the “gcPBM binding intensity (ln)” value was 9.47. In the case of “TAAACTTTCCAGTGTTGTACATAATAATTATTATAT [XGTACX_site8896]”, the “gcPBM binding intensity (ln)” value is reported as 9.69. In the case of “AAAGATATGAAATATACACACTTCTTTGGTATTATT [CACACA_site6352]”, the “gcPBM binding intensity (ln)” value is reported as 9.76. “ATTCATTCATATGTTACACACACACGCCCACATAAA [CACACA_site7513]” was tested, and the “gcPBM binding intensity (ln)” value was 10.6. In the case of “TTATATATATATATATATATTTACATAATAATATGT [GTGCAC_negctrl_site388]”, the “gcPBM binding intensity (ln)” value is reported as 9.64. For “TAAAAAAAGGTTATTGGTACACACATATGTATATAT [XGTACX_site1029]”, the “gcPBM binding intensity (ln)” value was 9.96. For “TAATATTCAATTATACGTACACATATATATATATAT [XGTACX_site4245]”, the “gcPBM binding intensity (ln)” value was 9.97. For “TATGAAAGAAATAGTACACACATAAACATTTGTAAA [CACACA_site2783]”, the “gcPBM binding intensity (ln)” value was 10.1. With “GTTGCGTATATATACACACATACATATATATATATA [CACACA_site1607]” the “gcPBM binding intensity (ln)” value was 9.76. “TTATATAATAAAAATTGTACATATTATATATATATT [XGTACX_site3427]” was tested, and the “gcPBM binding intensity (ln)” value was 9.58. In the case of “GTTTGATTAAACTTGACACACATATATATAAATATA [CACACA_site1784]”, the “gcPBM binding intensity (ln)” value is reported as 9.65. For “AAAAAAAAAAAAGAAACACACATATATATATATATA [CACACA_site140]”, the “gcPBM binding intensity (ln)” value was 9.68. For “AGAAAATATACAAAACGTACTTATATATTATATCTA [XGTACX_site3104]”, the “gcPBM binding intensity (ln)” value was 9.61. With “GTTAGAGGGAAAAAGAGTACATATATGTGGATAATT [XGTACX_site2064]” the “gcPBM binding intensity (ln)” value was 9.67. TCATATATCATAACAGTGCAAAAAAAAAAAAATTAT was tested, and the “gcPBM binding intensity (ln)” value was 9.64. For “ACTTTACAATATATATGTACATATTAATAAACATAT [XGTACX_site3689]”, the “gcPBM binding intensity (ln)” value was 9.79. With “GAGTTTTTTTAATGATGTACATTTTAAAAATAAACG [XGTACX_site1036]” the “gcPBM binding intensity (ln)” value was 9.29. With “AAAATAATATATGTATGTACATATACACATATAGAA [XGTACX_site2218]” the “gcPBM binding intensity (ln)” value was 9.86. In the case of “AAATGTTATAACTCTTGAAAAAACAAAATATCATCA [CACACA_negctrl_site1156]”, the “gcPBM binding intensity (ln)” value is reported as 9.55. For “AAATATAAACGGCACACACACAAAAAAAGAAAAAAA [CACACA_site649]”, the “gcPBM binding intensity (ln)” value was 11. For “AGAAACCTTGTTAGTTAGCATATATATATATATATA [CACACA_negctrl_site372]”, the “gcPBM binding intensity (ln)” value was 9.57. With “TATTTTATACATATTTTACACACTAATATATACATA [CACACA_site7998]” the “gcPBM binding intensity (ln)” value was 9.78. In the case of “TTTATTATACAAAATTGTACTTTATAATTTTATGTA [XGTACX_site5846]”, the “gcPBM binding intensity (ln)” value is reported as 9.57. For “AAATATTACGGAATAAAGAGCTTTTAAATAATTTTA [CACACA_negctrl_site1700]”, the “gcPBM binding intensity (ln)” value was 9.53. “ATACAAAATTTTTAAGAACACACAAAAATGTACTAT [CACACA_site8817]” was tested, and the “gcPBM binding intensity (ln)” value was 9.74. “TGAGGTAACTAAATATGTACGTAACGAAGATACATA [XGTACX_site8231]” was tested, and the “gcPBM binding intensity (ln)” value was 9.72. “TTTATAAAAATGAACACACACATATATATATATATA [CACACA_site3493]” was tested, and the “gcPBM binding intensity (ln)” value was 9.86. With “AAATATTTATAGGTTTGTACTTATAAATAAAAAAAA [XGTACX_site7360]” the “gcPBM binding intensity (ln)” value was 9.5. In the case of “AATATGAAAAGATGAACAACAAAATGGAGAACAATA [GTGCAC_negctrl_site612]”, the “gcPBM binding intensity (ln)” value is reported as 9.97. For “TACTTACACTGTTTTTGTACTTATTTCCCTTTTATT [XGTACX_site2158]”, the “gcPBM binding intensity (ln)” value was 9.96. For “AATCACAAATAAAATAATATGACACAATATAAAATA [CACACA_negctrl_site537]”, the “gcPBM binding intensity (ln)” value was 9.76. “TTCTTGTATTTTCATAGTACATATAATGTCGTATTA [XGTACX_site600]” was tested, and the “gcPBM binding intensity (ln)” value was 9.82. “TAATTTCTTATGTATTGTACAAATAATGTATGATAT [XGTACX_site270]” was tested, and the “gcPBM binding intensity (ln)” value was 9.47. In the case of “GCGTTATTAAATAATTCACACACATATATATATATA [CACACA_site8711]”, the “gcPBM binding intensity (ln)” value is reported as 10.1. For “GAACGCCATTCACATAAAGGGATACATAAATAAATA [XGTACX_negctrl_site330]”, the “gcPBM binding intensity (ln)” value was 9.49.

Reference: the supplement of paper PMC11417369
